Measured values published in the supplement of paper PMC4967469.
IC50 is the fitted dose that halves viability relative to control wells, and lower means more sensitive; where the fit passes the top or lowest dose, that dose stands as a limit. For AUC the same curve is integrated over the 256-fold range of doses and scaled to a fraction: 1 means no effect, lower means more sensitive. For some of these results: A top dose marked as inferred is not printed in the source and was worked back from the curve model.

Experiments:
Test in all cases: Viability of human cancer cell lines after 72 h of drug (GDSC screen)
XL-880 = compound: COc1cc2c(Oc3ccc(NC(=O)C4(C(=O)Nc5ccc(F)cc5)CC4)cc3F)ccnc2cc1OCCCN1CCOCC1 [XL-880]; conditions: top dose 5.12 µM; top dose inferred
Description: (§1)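 Human cancer cell lines in 384-well plates, medium with 10% serum, drug for 72 h over a 256-fold dose range (nine 2-fold or five 4-fold steps up to the top dose). Adherent lines were fixed and stained with the nucleic acid dye Syto60, suspension lines read with resazurin; signal relative to control wells, capped at 0 and 100%. One two-parameter sigmoid per drug and line, fitted in a mixed model over all curves with the slope shared within a line.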

Tubastatin A = compound: CN1CCc2c(c3ccccc3n2Cc2ccc(C(=O)NO)cc2)C1 [Tubastatin A]; conditions: top dose 20 µM
Description: as §1

IPA-3 = compound: Oc1ccc2ccccc2c1SSc1c(O)ccc2ccccc12 [IPA-3]; conditions: top dose 32 µM; top dose inferred
Description: as §1

Temozolomide = compound: Cn1nnc2c(C(N)=O)ncn2c1=O [Temozolomide]; conditions: top dose 30 µM
Description: as §1

## NCI-H2030 (lung adenocarcinoma, adherent)
XL-880
  AUC: 0.628
  IC50: 0.762 µM
Tubastatin A
  AUC: 0.95
  IC50: > 20 µM
IPA-3
  AUC: 0.952
  IC50: > 32 µM
Temozolomide
  AUC: 0.977
  IC50: > 30 µM

## NCI-H2085 (lung adenocarcinoma, adherent)
XL-880
  AUC: 0.663
  IC50: 0.944 µM
Tubastatin A
  AUC: 0.973
  IC50: > 20 µM
IPA-3
  AUC: 0.712
  IC50: 8.41 µM
Temozolomide
  AUC: 0.985
  IC50: > 30 µM

## YMB-1-E (breast, adherent)
XL-880
  AUC: 0.886
  IC50: > 5.12 µM
Tubastatin A
  AUC: 0.969
  IC50: > 20 µM

## OSC-19 (head and neck, adherent)
XL-880
  AUC: 0.638
  IC50: 0.785 µM
Tubastatin A
  AUC: 0.976
  IC50: > 20 µM
IPA-3
  AUC: 0.769
  IC50: 12.6 µM
Temozolomide
  AUC: 0.963
  IC50: > 30 µM

## NCI-H1573 (lung adenocarcinoma, adherent)
XL-880
  AUC: 0.834
  IC50: 3.21 µM
Tubastatin A
  AUC: 0.988
  IC50: > 20 µM
IPA-3
  AUC: 0.985
  IC50: > 32 µM
Temozolomide
  AUC: 0.99
  IC50: > 30 µM

## PCI-38 (head and neck, adherent)
XL-880
  AUC: 0.571
  IC50: 0.5 µM
Tubastatin A
  AUC: 0.96
  IC50: > 20 µM
IPA-3
  AUC: 0.986
  IC50: > 32 µM
Temozolomide
  AUC: 0.985
  IC50: > 30 µM

## SW1088 (glioma, adherent)
XL-880
  AUC: 0.607
  IC50: 0.687 µM
Tubastatin A
  AUC: 0.98
  IC50: > 20 µM
IPA-3
  AUC: 0.853
  IC50: > 32 µM
Temozolomide
  AUC: 0.948
  IC50: > 30 µM

## KYSE-180 (oesophagus, adherent)
XL-880
  AUC: 0.51
  IC50: 0.339 µM
Tubastatin A
  AUC: 0.96
  IC50: > 20 µM
IPA-3
  AUC: 0.988
  IC50: > 32 µM
Temozolomide
  AUC: 0.931
  IC50: > 30 µM

## KYSE-270 (oesophagus, adherent)
XL-880
  AUC: 0.65
  IC50: 0.778 µM
Tubastatin A
  AUC: 0.982
  IC50: > 20 µM
IPA-3
  AUC: 0.767
  IC50: 10.2 µM
Temozolomide
  AUC: 0.987
  IC50: > 30 µM

## NCI-H1793 (lung adenocarcinoma, adherent)
XL-880
  AUC: 0.825
  IC50: 4.92 µM
Tubastatin A
  AUC: 0.981
  IC50: > 20 µM
IPA-3
  AUC: 0.979
  IC50: > 32 µM
Temozolomide
  AUC: 0.979
  IC50: > 30 µM

## COR-L303 (small cell lung carcinoma, suspension)
XL-880
  AUC: 0.625
  IC50: 0.698 µM
Tubastatin A
  AUC: 0.816
  IC50: 10.6 µM

## LU-99A (large cell lung carcinoma, adherent)
XL-880
  AUC: 0.65
  IC50: 0.83 µM
Tubastatin A
  AUC: 0.92
  IC50: > 20 µM
IPA-3
  AUC: 0.96
  IC50: > 32 µM
Temozolomide
  AUC: 0.968
  IC50: > 30 µM

## J82 (bladder, adherent)
XL-880
  AUC: 0.749
  IC50: 1.65 µM
Tubastatin A
  AUC: 0.982
  IC50: > 20 µM
IPA-3
  AUC: 0.727
  IC50: 8.77 µM
Temozolomide
  AUC: 0.987
  IC50: > 30 µM

## NUGC-3 (stomach, adherent)
XL-880
  AUC: 0.831
  IC50: 3.82 µM
Tubastatin A
  AUC: 0.982
  IC50: > 20 µM
IPA-3
  AUC: 0.839
  IC50: 25.9 µM
Temozolomide
  AUC: 0.981
  IC50: > 30 µM

## RT-112 (bladder, adherent)
XL-880
  AUC: 0.477
  IC50: 0.275 µM
Tubastatin A
  AUC: 0.92
  IC50: > 20 µM
IPA-3
  AUC: 0.784
  IC50: 14.7 µM
Temozolomide
  AUC: 0.983
  IC50: > 30 µM

## NCI-H2228 (lung adenocarcinoma, adherent)
XL-880
  AUC: 0.631
  IC50: 0.888 µM
Tubastatin A
  AUC: 0.974
  IC50: > 20 µM
IPA-3
  AUC: 0.961
  IC50: > 32 µM

## BICR31 (head and neck, adherent)
XL-880
  AUC: 0.733
  IC50: 1.48 µM
Tubastatin A
  AUC: 0.988
  IC50: > 20 µM
IPA-3
  AUC: 0.815
  IC50: 17.8 µM

## BHY (head and neck, adherent)
XL-880
  AUC: 0.595
  IC50: 0.583 µM
Tubastatin A
  AUC: 0.947
  IC50: > 20 µM
IPA-3
  AUC: 0.869
  IC50: 29.6 µM
Temozolomide
  AUC: 0.985
  IC50: > 30 µM

## ML-1 (thyroid, adherent)
XL-880
  AUC: 0.743
  IC50: 1.82 µM
Tubastatin A
  AUC: 0.981
  IC50: > 20 µM
IPA-3
  AUC: 0.696
  IC50: 7.86 µM
Temozolomide
  AUC: 0.981
  IC50: > 30 µM

## RERF-GC-1B (stomach, adherent)
XL-880
  AUC: 0.565
  IC50: 0.491 µM
Tubastatin A
  AUC: 0.96
  IC50: > 20 µM
IPA-3
  AUC: 0.909
  IC50: > 32 µM
Temozolomide
  AUC: 0.973
  IC50: > 30 µM

## HTC-C3 (thyroid, adherent)
XL-880
  AUC: 0.788
  IC50: 2.54 µM
Tubastatin A
  AUC: 0.925
  IC50: > 20 µM
IPA-3
  AUC: 0.854
  IC50: 30.3 µM
Temozolomide
  AUC: 0.981
  IC50: > 30 µM

## KOSC-2 (head and neck, adherent)
XL-880
  AUC: 0.525
  IC50: 0.376 µM
Tubastatin A
  AUC: 0.974
  IC50: > 20 µM
IPA-3
  AUC: 0.876
  IC50: > 32 µM
Temozolomide
  AUC: 0.955
  IC50: > 30 µM

## HeLa (cervix, adherent)
XL-880
  AUC: 0.693
  IC50: 1.08 µM
IPA-3
  AUC: 0.881
  IC50: 31 µM

## SNU-423 (liver, adherent)
XL-880
  AUC: 0.622
  IC50: 0.738 µM
Tubastatin A
  AUC: 0.967
  IC50: > 20 µM
IPA-3
  AUC: 0.901
  IC50: > 32 µM
Temozolomide
  AUC: 0.972
  IC50: > 30 µM

## SNU-398 (liver, adherent)
XL-880
  AUC: 0.643
  IC50: 0.81 µM
IPA-3
  AUC: 0.802
  IC50: 16.5 µM
Temozolomide
  AUC: 0.981
  IC50: > 30 µM

## GCT (soft tissue, adherent)
XL-880
  AUC: 0.919
  IC50: > 5.12 µM
Tubastatin A
  AUC: 0.984
  IC50: > 20 µM
IPA-3
  AUC: 0.985
  IC50: > 32 µM
Temozolomide
  AUC: 0.883
  IC50: 28.4 µM

## H2818 (mesothelioma, adherent)
XL-880
  AUC: 0.965
  IC50: > 5.12 µM
Tubastatin A
  AUC: 0.973
  IC50: > 20 µM
IPA-3
  AUC: 0.972
  IC50: > 32 µM
Temozolomide
  AUC: 0.982
  IC50: > 30 µM

## SW156 (kidney, adherent)
XL-880
  AUC: 0.703
  IC50: 1.29 µM
Tubastatin A
  AUC: 0.981
  IC50: > 20 µM
IPA-3
  AUC: 0.986
  IC50: > 32 µM
Temozolomide
  AUC: 0.977
  IC50: > 30 µM

## SNU-182 (liver, adherent)
XL-880
  AUC: 0.658
  IC50: 0.898 µM
Tubastatin A
  AUC: 0.977
  IC50: > 20 µM
IPA-3
  AUC: 0.819
  IC50: 19.3 µM
Temozolomide
  AUC: 0.973
  IC50: > 30 µM

## PC-3 (prostate, adherent)
Tubastatin A
  AUC: 0.943
  IC50: > 20 µM
IPA-3
  AUC: 0.869
  IC50: > 32 µM
Temozolomide
  AUC: 0.981
  IC50: > 30 µM

## HPAC (pancreas, adherent)
XL-880
  AUC: 0.528
  IC50: 0.393 µM
Tubastatin A
  AUC: 0.965
  IC50: > 20 µM
IPA-3
  AUC: 0.922
  IC50: > 32 µM

## SNU-175 (large intestine, suspension)
XL-880
  AUC: 0.513
  IC50: 0.347 µM
Tubastatin A
  AUC: 0.983
  IC50: > 20 µM

## SW1116 (large intestine, adherent)
XL-880
  AUC: 0.87
  IC50: > 5.12 µM
Tubastatin A
  AUC: 0.98
  IC50: > 20 µM
Temozolomide
  AUC: 0.983
  IC50: > 30 µM

## VM-CUB-1 (bladder, adherent)
XL-880
  AUC: 0.771
  IC50: 1.89 µM
Tubastatin A
  AUC: 0.985
  IC50: > 20 µM
IPA-3
  AUC: 0.888
  IC50: > 32 µM

## COR-L311 (small cell lung carcinoma, suspension)
XL-880
  AUC: 0.806
  IC50: 2.84 µM
